# Measured values reported in PubChem BioAssay AID1476 (National Center for Advancing Translational Sciences (NCATS), 2009).
# Hit rate of the full screen: of about 200,000 compounds, about 4,500 (2.2%) were called active. Inconclusive means that the source gave no clear call. Such entries were picked first, then a sample of the others. The call rests on the fitted dose curve; in most records, active means well fitted inhibition curve with a large enough effect; inconclusive means small, poorly fitted or top-dose-only effect, or effect the other way; inactive means flat fitted curve, though single readings scatter. Potencies beside an inconclusive call are fits to weak or partial responses and may not hold up.
# Target: Cruzipain (Trypanosoma cruzi) (UniProt P25779)
# UniProt P25779, sequence (P25779 whole entry, looked up): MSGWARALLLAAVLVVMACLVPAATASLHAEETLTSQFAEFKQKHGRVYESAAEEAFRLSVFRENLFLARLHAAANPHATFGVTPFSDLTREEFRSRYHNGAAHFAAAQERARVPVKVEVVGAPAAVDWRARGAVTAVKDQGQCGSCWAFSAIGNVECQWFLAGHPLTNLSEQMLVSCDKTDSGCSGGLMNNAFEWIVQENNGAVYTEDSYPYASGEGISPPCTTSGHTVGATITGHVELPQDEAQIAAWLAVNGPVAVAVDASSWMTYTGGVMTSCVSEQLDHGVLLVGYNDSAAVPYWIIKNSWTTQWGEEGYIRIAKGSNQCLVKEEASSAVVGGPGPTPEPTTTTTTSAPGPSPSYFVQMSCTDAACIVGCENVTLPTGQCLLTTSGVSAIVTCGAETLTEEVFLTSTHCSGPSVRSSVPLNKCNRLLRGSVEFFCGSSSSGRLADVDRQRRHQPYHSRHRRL
# Test: qHTS Assay for Promiscuous and Specific Inhibitors of Cruzain (without detergent); further: nearly all actives have a fitted effect of over 40% in size;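 on max response, negative = inhibition: plate controls were enzyme without inhibitor for no effect and buffer without enzyme for full effect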
# Details: purified cruzain, Z-FR-AMC fluorescence, no detergent
# Outline: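 Purified cruzain at 1.5 nM, pre-incubated 15 min with compound at room temperature in 100 mM sodium acetate pH 5.5, 5 mM DTT, 0.00005% Triton X-100. Reaction started with 2 uM Z-FR-AMC; AMC fluorescence increase over 60 s gives rate.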
# Potency means the concentration at half of the fitted maximal effect; tags describe the fitted curve by direction and shape.
SMILES,Potency,"max response, negative = inhibition"
CC1Cc2ccccc2N1Cc1cc(=O)n2ccsc2n1 (stereo not drawn),"inconclusive: 39.8 µM [inhibitor, single point]",
COc1ccc(C2C=C(C34CC5CC(CC(C5)C3)C4)NC(=S)N2)cc1 (stereo not drawn),active: 25.1 µM,
O=C(Cn1cnc2c(cnn2-c2ccc(Cl)cc2)c1=O)NC1CCCCC1,active: 10 µM,
COC(=O)[C@@]1(Cc2ccc(OC)cc2)[C@H]2c3cc(C(=O)N(C)C)n(Cc4ccc(O)c(OC)c4)c3C[C@H]2CN1C(=O)c1ccccc1,"inconclusive: 20 µM [activator, partial curve]",
O=C(c1cc2c(s1)-c1ccccc1OC2)N1CCCC1,"inconclusive: 39.8 µM [inhibitor, single point]",
Cc1ccc(-c2cc(-c3ccccc3O)nc(N/N=C/c3cccnc3)n2)cc1,active: 25.1 µM,
Cc1cc(/C=C2/NC(=O)N(Cc3ccccc3F)C2=O)c(C)n1C,active: 25.1 µM,
CC(NC(=O)CSc1nc2ccccc2c(=O)[nH]1)c1ccccc1 (stereo not drawn),"inconclusive: 31.6 µM [inhibitor, single point]",
Nc1c(C(=O)NCc2ccc(Cl)cc2)sc2nc(-c3ccc(F)cc3)ccc12,active: 10 µM,
COc1cc(OC)cc(C(=O)OCC(=O)Nc2ccc(N3CCCCC3)cc2)c1,"inconclusive: 39.8 µM [inhibitor, single point]",
CCc1ccc(Nc2sc(C(=O)c3ccc(F)cc3)c(N)c2S(=O)(=O)c2ccccc2)cc1,active: 7.94 µM,
O=c1/c(=C\c2ccc(O)cc2)sc2n1C(c1ccccc1)C(c1ccccc1)=NN=2 (stereo not drawn),active: 25.1 µM,
O=C1CSC(c2ccc3c(c2)OCO3)N1c1ccc(Oc2ccccc2)cc1 (stereo not drawn),"inconclusive: 31.6 µM [inhibitor, single point]",
Cc1ccc(C2C(C=Nc3c(C)n(C)n(-c4ccccc4)c3=O)=C(c3ccccc3)Oc3ccccc32)cc1 (stereo not drawn),active: 7.94 µM,
Cc1cc(C)cc(N(C(=O)c2sc(C)nc2C)C(C(=O)NCc2ccco2)c2ccccc2)c1 (stereo not drawn),"inconclusive: 25.1 µM [activator, single point]",
O=C(CSc1nccn1Cc1ccco1)Nc1cc(C(F)(F)F)ccc1Cl,,inactive: -8.27%
O=C(c1ccc2c(Cl)c3c(nc2c1)CCCC3)N1CCN(c2cccc(C(F)(F)F)c2)CC1,,inactive: -1.26%
NC(=O)/N=N/C(N)=O,,inactive: -4.85%
O=C(Nc1ccc(Cl)cc1)NC1CCCCC1,,inactive: -2.16%
COc1ccc(-n2c(O)c(C=Nc3c(C)n(C)n(-c4ccccc4)c3=O)c(=O)[nH]c2=O)cc1,"inconclusive: 39.8 µM [activator, single point]",
CCc1ccc(NC(=O)C(C)OC(=O)c2ccc(NS(=O)(=O)c3ccc(C)c([N+](=O)[O-])c3)cc2)cc1 (stereo not drawn),active: 15.8 µM,
O=C(OC(C(=O)Nc1cc(Cl)cc(Cl)c1)c1ccccc1)C1=COCCO1 (stereo not drawn),"inconclusive: 25.1 µM [inhibitor, single point]",
CC(C)(C)NC(=O)C(c1ccncc1)N(Cc1cccs1)C(=O)Cn1nnc(-c2ccc(F)cc2)n1 (stereo not drawn),"inconclusive: 39.8 µM [activator, single point]",

SMILES,Potency,"max response, negative = inhibition"
COc1ccc(/C=C/C(=O)Nc2cc(C)nn2-c2nc3ccccc3[nH]2)cc1,"inconclusive: 39.8 µM [inhibitor, single point]",
Cc1c(C(=O)N/N=C/c2ccc(N(C)C)cc2)[nH]c2ccc(Cl)cc12,active: 10 µM,
O=C(NC1CC(=O)N(c2ccc(F)cc2)C1)c1ccc2c(c1)OCO2 (stereo not drawn),,inactive: -5.29%
CC(=O)Nc1ccc2c(CSc3nnc(-c4cccnc4)n3-c3ccc(C)cc3C)cc(=O)oc2c1,"inconclusive: 31.6 µM [activator, single point]",
Cc1ccc(N(C)C(=O)CN2C(=O)CCc3cc(S(=O)(=O)N4CCOCC4)ccc32)cc1,,inactive: -9.02%
O=C(CCN1C(=O)C2C3C=CC(C3)C2C1=O)N1CCN(c2ccccc2Cl)CC1 (stereo not drawn),"inconclusive: 31.6 µM [activator, single point]",
CC(=O)c1ccc(NC(=O)Cn2ncc3c4ccccc4n(Cc4ccccc4)c3c2=O)cc1,"inconclusive: 39.8 µM [inhibitor, single point]",
CCC(CC)c1nnc(NC(=O)c2cc(-c3ccccc3)nc3ccccc23)s1,"inconclusive: 39.8 µM [inhibitor, single point]",
CCOc1ccc(C2C(=O)N(C3CCCCC3)CC(=O)N2CCc2ccccc2)cc1OC (stereo not drawn),"inconclusive: 31.6 µM [activator, single point]",
COc1ccc(CCNC(=O)Cc2c(C)c3cc4c(C)coc4cc3oc2=O)cc1OC,,inactive: -0.8%
Cc1ccc(-n2c(=O)c3c(C)c(C)sc3n(Cc3ccc(F)cc3Cl)c2=O)cc1C,,inactive: 1.96%
COc1ccc(C(=O)CSc2nnc(-c3cc4ccccc4cc3O)n2Cc2ccco2)cc1,"inconclusive: 39.8 µM [inhibitor, single point]",
COc1ccc(C2C3=C(CCCC3=O)Nc3nc(-c4cc(OC)c(OC)c(OC)c4)nn32)cc1OC (stereo not drawn),"inconclusive: 39.8 µM [activator, single point]",
CC(C)CC(c1nnnn1Cc1cccs1)N1CCN(c2nc3ccccc3s2)CC1 (stereo not drawn),active: 31.6 µM,
O=C(NNC(=O)c1cc2c(s1)CCCC2)c1ccccc1,"inconclusive: 25.1 µM [inhibitor, single point]",
CN(C)c1cccc2c(C=C(C#N)C#N)ccc(N(C)C)c12,active: 20 µM,
CCN(CC)c1ccc(-n2nc3cc(C)c(NC(=O)c4ccccc4C)cc3n2)c(C)c1,"inconclusive: 25.1 µM [inhibitor, single point]",
Cc1nc(N2CCOCC2)c2nc(-c3ccccc3)n(C(C)CN(C)C)c2n1 (stereo not drawn),,inactive: -7.21%
COc1ccc(/C=N/OCC(=O)N(Cc2ccc(OC)cc2)c2ccccc2C(=O)O)cc1,"inconclusive: 31.6 µM [activator, single point]",
COc1ccccc1CNC(=O)CSc1nc(=O)[nH]c2c1CCC2,,inactive: 2.81%
CC1=C(C(=O)Nc2ccc(C)cc2C)C(c2ccc(Br)cc2)n2ncc(C(=O)Nc3cccc(C)c3)c2N1 (stereo not drawn),"inconclusive: 39.8 µM [inhibitor, single point]",
COc1ccc(N2CCN(S(=O)(=O)c3ccc(-c4cnc(C5CC5)o4)cc3)CC2)cc1,"inconclusive: 5.01 µM [activator, single point]",
COC(=O)CCC(=O)Nc1cc(S(=O)(=O)Nc2ccc(Cl)cc2)ccc1N1CCOCC1,"inconclusive: 39.8 µM [activator, single point]",

SMILES,Potency,"max response, negative = inhibition"
CCC1=NN2C(=N)/C(=C/c3c(C)nn(-c4ccccc4)c3Cl)C(=O)N=C2S1,"inconclusive: 39.8 µM [activator, single point]",
CN(C)c1ccc(Nc2nc3ccccc3n3nnnc23)cc1,active: 15.8 µM,
COc1ccc(-c2cc(C(=O)Nc3cc(OC)c(OC)c(OC)c3)no2)cc1OC,"inconclusive: 39.8 µM [activator, single point]",
Cc1[nH]n(-c2ncc(-c3ccccc3)s2)c(=O)c1C(c1ccc(Br)cc1)C(C#N)C#N (stereo not drawn),active: 12.6 µM,
CC(C)(C)CC(C)(C)c1ccc(OCC(=O)Nc2ccc(S(=O)(=O)Nc3ncccn3)cc2)cc1,,inactive: -9.39%
CC1=C(C#N)c2nc(N)c(C#N)c(C)c2/C1=C\c1ccc(C)cc1,,inactive: -17.6%
O=[N+]([O-])c1ccc(N2CCN(S(=O)(=O)c3ccc(Cl)c(Cl)c3)CC2)cc1NCCN1CCOCC1,,inactive: 5.72%
C=C1c2cccc(OC)c2O[C@H](C(=O)OCC)[C@@H]1CCCCCC,"inconclusive: 50.1 µM [activator, single point]",
c1coc(C2Nc3cccc4cccc(c34)N2)c1,active: 7.94 µM,
Cc1cc2oc(=O)cc(CN3CCN(S(=O)(=O)c4ccc5c(c4)OCCO5)CC3)c2cc1C,"inconclusive: 39.8 µM [inhibitor, single point]",
COc1ccc(CC(=O)Nc2ccc(-c3noc(-c4cccc(OC)c4)n3)cc2)cc1,active: 7.94 µM,
CCOC(=O)c1c(C)[nH]c(C(=O)COC(=O)C(C)N2C(=O)C3CCCCC3C2=O)c1C (stereo not drawn),"inconclusive: 39.8 µM [activator, single point]",
Cc1ccccc1NC(=O)Cn1nnc(C(=O)NCCc2ccccc2)c1N,,inactive: -12.1%
CN1CCN(C(=O)Cn2ncc3c4ccccc4n(Cc4ccc(Cl)cc4)c3c2=O)CC1,,inactive: 9.68%
O=C(CCSCc1ccc(Cl)cc1)NCc1ccc(F)cc1Cl,,inactive: -25.6%
CCC(=O)NC(=S)Nc1ccc(NC(=O)c2ccc([N+](=O)[O-])cc2)cc1,"inconclusive: 39.8 µM [inhibitor, single point]",
Cc1ccc(NC(=O)c2c(NC(=O)c3ccccc3Cl)sc3c2CCC3)cc1,"inconclusive: 3.98 µM [activator, single point]",
CCNC(=O)c1cc2n(n1)CCCN(Cc1ccc(C)cc1)C2=O,,inactive: 4.87%
O=C(CSc1nnnn1-c1cccc(F)c1)Nc1nc2ccccc2s1,"inconclusive: 39.8 µM [inhibitor, single point]",
O=C(OCC(=O)N1CCN(C(=O)c2ccco2)CC1)c1ccccc1C(=O)c1ccc(Cl)cc1,"inconclusive: 25.1 µM [activator, single point]",
N#Cc1cc2cc3c(cc2nc1N1CCCCC1)OCCO3,,inactive: -9.74%
CCOC(=O)c1sc2ccccc2c1S(=O)(=O)N1CCN(c2cc(C)ccc2C)CC1,active: 20 µM,
